Measured values as given in PubChem BioAssay AID2147 (National Center for Advancing Translational Sciences (NCATS), 2009).
Values joined by “and” are separate entries in the source; they are usually repeats but may differ in a detail not shown here. Equal values may be shown once. The campaign covered roughly 230,000 compounds. About 3,600 (1.6%) were called active. Inconclusive results, whose numbers are uncertain, are shown with a selection of clear calls. The call rests on the fitted dose curve; in most records, active means well fitted inhibition curve with a large enough effect (not every such curve was filed as active); inconclusive means small, poorly fitted or top-dose-only effect, or another doubt; inactive means no such curve, though single readings can be large or run the other way. Potencies of inconclusive entries are doubtful fits and often do not repeat.

Each molecule was assayed against Lysine-specific demethylase 4E (Homo sapiens) (UniProt B2RXH2) (assay: qHTS Assay for Inhibitors of Human Jumonji Domain Containing 2E (JMJD2E)). Details: JMJD2E catalytic domain, FDH-coupled NADH fluorescence (FDH is formaldehyde dehydrogenase); series mostly up to 57.1 µM; activity change, negative = inhibition: at the top concentration.
Sequence of UniProt B2RXH2 (B2RXH2 whole entry, looked up, the tested form may be a part): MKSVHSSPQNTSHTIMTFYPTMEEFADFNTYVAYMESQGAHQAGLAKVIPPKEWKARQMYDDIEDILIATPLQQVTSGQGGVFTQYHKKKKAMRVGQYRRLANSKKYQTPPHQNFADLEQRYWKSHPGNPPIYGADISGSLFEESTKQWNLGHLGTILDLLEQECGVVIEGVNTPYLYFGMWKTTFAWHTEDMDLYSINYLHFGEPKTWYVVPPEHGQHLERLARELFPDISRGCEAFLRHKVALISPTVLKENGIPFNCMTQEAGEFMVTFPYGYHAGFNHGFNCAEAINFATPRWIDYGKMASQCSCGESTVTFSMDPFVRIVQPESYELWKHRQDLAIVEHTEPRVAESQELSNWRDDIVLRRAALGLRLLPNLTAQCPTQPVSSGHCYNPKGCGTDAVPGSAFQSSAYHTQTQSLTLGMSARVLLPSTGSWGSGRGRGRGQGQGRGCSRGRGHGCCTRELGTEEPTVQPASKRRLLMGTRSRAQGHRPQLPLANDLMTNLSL
Further: nearly all actives have a fitted effect of over 50% in size.
Potency means the concentration at half of the fitted maximal effect; tags describe the fitted curve by direction and shape.
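Wherever activity change, negative = inhibition is given: 0% = wells with enzyme and -100% = buffer wells without enzyme.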

Q: Which “activity change, negative = inhibition” value does the source give for `COC(=O)CCC(=O)Nc1ccc(C)cc1OC(=O)CCC(=O)OC` here?
A: inactive: 8.37%

Q: With `Cc1nc(/C(=N/O)C(N)=O)cs1` as the molecule, how does the “activity change, negative = inhibition” value read?
A: inactive: 6.26%

Q: For `CCN(c1ccc(NC(=O)c2ccc(Cl)nc2)cc1)C(C)C`, which “activity change, negative = inhibition” value is on record?
A: inactive: 7.25%

Q: How did the Potency turn out when `Cc1cc(C)c2nc(/N=C(\N)NC(=O)c3ccccc3)nc(C)c2c1` was run?
A: inconclusive: 8.91 µM [inhibitor, single point]

Q: For `Cc1ccc(C(=O)Nc2cccnc2Oc2ccc(Cl)cc2)cc1`, which Potency is on record?
A: inconclusive: 28.2 µM [inhibitor, single point]

Q: For `Oc1c(Br)cc(Br)c2cccnc12`, which Potency is on record?
A: active: 20 µM

Q: With `CCN1CCN(Cc2ccc(NC(=O)c3ccc(C)c(NC(=O)c4nccnc4N)c3)cc2C(F)(F)F)CC1` as the molecule, how does the “activity change, negative = inhibition” value read?
A: inactive: -0.636%

Q: With `CCn1c(=O)n(CC(=O)N(C)Cc2ccccc2)c(=O)c2ccccc21` as the molecule, how does the Potency read?
A: inconclusive: 39.8 µM [inhibitor, single point]

Q: How did the Potency turn out when `Cc1cc(=O)oc2cc(OCCSCCN3CCOCC3)ccc12` was run?
A: inconclusive: 28.2 µM [inhibitor, partial curve]

Q: How did the “activity change, negative = inhibition” value turn out when `NS(=O)(=O)c1ccc(NC(=S)Nc2ccc(C(=O)N3CCCCC3)cc2)cc1` was run?
A: inactive: -3.83%

Q: `CCOC(=O)N1CCN(c2c(NCc3ccc(F)cc3)c(=O)c2=O)CC1` was tested. Which “activity change, negative = inhibition” value did it give?
A: inactive: 5.51%

Q: Which Potency does the source give for `COc1ccc(-c2cc(C(=O)Nc3cc(C)on3)no2)cc1OC` here?
A: inconclusive: 35.5 µM [inhibitor, single point]

Q: For `Cc1cccc(NC(=O)CCCN2C(=O)c3ccccc3C2=O)n1`, which “activity change, negative = inhibition” value is on record?
A: inactive: 1.75%

Q: How did the “activity change, negative = inhibition” value turn out when `O=C(NC(=S)NCc1ccccc1)c1ccccc1F` was run?
A: inactive: 1.59%

Q: Which Potency does the source give for `CCN(c1ccc(F)cc1)S(=O)(=O)c1ccc2[nH]cc(C(=O)NCCCN3CCOCC3)c(=O)c2c1` here?
A: inconclusive: 39.8 µM [inhibitor, single point]

Q: `Cn1c(=O)n(C)c2cc(NC(=O)CSc3nnc(-c4ccccc4O)n3-c3ccccc3)ccc21` was tested. Which Potency did it give?
A: inconclusive: 35.5 µM [inhibitor, single point]

Q: For `CCCCCn1nc(C(=O)OCC(=O)c2c(N)n(C)c(=O)n(C)c2=O)c2ccccc2c1=O`, which Potency is on record?
A: inconclusive: 31.6 µM [inhibitor, single point]

Q: Which Potency does the source give for `Cc1ccc2cccc(SCC(=O)NCc3ccco3)c2n1` here?
A: inconclusive: 28.2 µM [inhibitor, partial curve]

Q: `CN(C)/C=C1/C=C(c2ccccc2)OC1=O` was tested. Which Potency did it give?
A: inconclusive: 31.6 µM [inhibitor, single point]

Q: With `CCN1C(=O)C(CC(=O)Nc2ccc(OC)cc2)N(Cc2ccc3c(c2)OCO3)C1=S` (stereo not given) as the molecule, how does the Potency read?
A: inconclusive: 28.2 µM [inhibitor, single point]

Q: Which Potency does the source give for `COc1cc2c(C#N)c(N3CCOCC3)nc(N)c2c(N)n1` here?
A: inconclusive: 22.4 µM [inhibitor, partial curve]

Q: For `CCCCCn1c(=O)[nH]c2cc(C(=O)NCCc3ccc(OC)c(OC)c3)ccc2c1=O`, which Potency is on record?
A: inconclusive: 22.4 µM [inhibitor, single point]

Q: `COc1ccc(-c2coc3cc(O)ccc3c2=O)cc1` was tested. Which Potency did it give?
A: inconclusive: 28.2 µM [inhibitor, partial curve] and inconclusive: 31.6 µM [inhibitor, partial curve]

Q: `O=C(Sc1nnnn1C1CCCCC1)c1cccs1` was tested. Which Potency did it give?
A: inconclusive: 31.6 µM [inhibitor, single point]

Q: For `CCn1cc(C(=O)NCC(=O)OC)c2cc(OC)c(OC)cc2c1=O`, which Potency is on record?
A: inconclusive: 35.5 µM [inhibitor, single point]

Q: For `O=C(O)C(Cc1ccccc1)N1C(=O)/C(=C/C=C/c2ccco2)SC1=S` (stereo not given), which Potency is on record?
A: active: 7.94 µM

Q: With `CC1CCC(NC(=O)c2ccc(/C=C3\Oc4ccccc4N(C)C3=O)cc2)CC1` (stereo not given) as the molecule, how does the Potency read?
A: inconclusive: 35.5 µM [inhibitor, single point]

Q: With `CCOC(=O)c1c(NC(=O)CSc2nc3ccccc3s2)sc(C(C)=O)c1C` as the molecule, how does the Potency read?
A: inconclusive: 39.8 µM [inhibitor, single point]

Q: How did the Potency turn out when `CCCC(C)C(=O)Nc1ccccc1C(=O)OCC` (stereo not given) was run?
A: inconclusive: 28.2 µM [inhibitor, single point]

Q: With `COc1ccccc1-c1nnc(NC(=O)C(C)SC2=NCCS2)s1` (stereo not given) as the molecule, how does the Potency read?
A: inconclusive: 35.5 µM [inhibitor, single point]

Q: Which Potency does the source give for `C=CCOc1ccc(CNc2ccc3[nH]c(=O)[nH]c3c2)cc1OCC` here?
A: inconclusive: 39.8 µM [inhibitor, single point]

Q: For `CCCn1c(NC(=O)c2ccc(Br)cc2)nc2ccccc21`, which Potency is on record?
A: inconclusive: 22.4 µM [inhibitor, single point]

Q: Which Potency does the source give for `CCCCC1=CC2=CC(=O)C(C)(OC(=O)CC)C(=O)C2=CN1c1ccc(OC)cc1` (stereo not given) here?
A: inconclusive: 20 µM [inhibitor, partial curve]

Q: For `CN(Cc1cc(=O)n2ccsc2n1)Cc1nc2ccccc2c(=O)[nH]1`, which Potency is on record?
A: inconclusive: 39.8 µM [inhibitor, single point]

Q: For `NNC(=O)c1sc2nc(N3CCOCC3)c3c(c2c1N)CCCC3`, which Potency is on record?
A: inconclusive: 22.4 µM [inhibitor, partial curve]

Q: With `CSc1ccc(/C=C/c2cc(=O)c3ccccc3[nH]2)cc1` as the molecule, how does the Potency read?
A: inconclusive: 39.8 µM [inhibitor, single point]

Q: Which “activity change, negative = inhibition” value does the source give for `COc1ccc(OC)c(-n2c(=O)c3ccccc3c3ccccc3c2=O)c1` here?
A: inactive: 2.51%

Q: `O=C(CN1CCN(c2ccccn2)CC1)N1c2ccccc2Sc2ccc(C(F)(F)F)cc21` was tested. Which Potency did it give?
A: inconclusive: 39.8 µM [inhibitor, single point]

Q: `CCC1(C)Cc2ccccc2-c2nc(NCCO)n(-c3ccc(C)cc3)c(=O)c21` (stereo not given) was tested. Which Potency did it give?
A: inconclusive: 31.6 µM [inhibitor, partial curve]

Q: For `O=[N+]([O-])c1ccccc1S(=O)(=O)N1CCN(CC2CC=CCC2)CC1` (stereo not given), which Potency is on record?
A: inconclusive: 31.6 µM [inhibitor, single point]

Q: For `O=Cc1ccc(Oc2cnccn2)cc1`, which Potency is on record?
A: inconclusive: 31.6 µM [inhibitor, single point]

Q: For `O=C(O)c1ccc(NS(=O)(=O)/C=C/c2ccccc2)cc1O`, which Potency is on record?
A: inconclusive: 35.5 µM [inhibitor, single point]

Q: `C#CCN1C(=O)C(O)(CC(=O)c2cc(OC)ccc2OC)c2ccccc21` (stereo not given) was tested. Which Potency did it give?
A: inconclusive: 39.8 µM [inhibitor, single point]

Q: For `CCOC(=O)Cc1c(C)nc2c(C#N)c[nH]n2c1=O`, which Potency is on record?
A: inconclusive: 28.2 µM [inhibitor, single point]

Q: How did the Potency turn out when `CCS(=O)(=O)N1Cc2ccccc2CC1C(=O)Nc1nc2ccccc2s1` (stereo not given) was run?
A: inconclusive: 35.5 µM [inhibitor, single point]

Q: How did the “activity change, negative = inhibition” value turn out when `O=C1C(c2c(O)[nH]c3ccccc23)=Nc2ccccc21` was run?
A: inactive: -0.847%

Q: How did the Potency turn out when `O=C(CCc1nnc(-c2ccc(-c3ccccc3)cc2)o1)N1CCCCC1` was run?
A: inconclusive: 25.1 µM [inhibitor, partial curve]

Q: `Cn1c(/C(C#N)=C(\O)c2ccc(S(=O)(=O)N3CCCCC3)cc2)nc2ccccc21` was tested. Which Potency did it give?
A: inconclusive: 6.31 µM [inhibitor, single point]

Q: How did the Potency turn out when `CC(C)Cn1cc(C(=O)N2CCC(C)CC2)c2c3ccccc3n(C)c2c1=O` was run?
A: inconclusive: 25.1 µM [inhibitor, partial curve]

Q: How did the “activity change, negative = inhibition” value turn out when `CC(=O)c1cccc(NC(=S)NCCC2=CCCCC2)c1` was run?
A: inactive: -5.3%

Q: `CCOC(=O)CSc1nnc(-c2ccccc2)o1` was tested. Which “activity change, negative = inhibition” value did it give?
A: inactive: 3.25%

Q: With `O=C(CSc1ncnc2sc(-c3ccccc3)cc12)NC1CCS(=O)(=O)C1` (stereo not given) as the molecule, how does the Potency read?
A: inconclusive: 35.5 µM [inhibitor, single point]

Q: `CCCNC(=O)CNC(=S)N(Cc1ccccc1F)C1CCCCC1` was tested. Which “activity change, negative = inhibition” value did it give?
A: inactive: 6.57%

Q: How did the Potency turn out when `CCOc1ccc(-c2nc(-c3cccs3)c(CC(=O)O)s2)cc1OC` was run?
A: inconclusive: 28.2 µM [inhibitor, partial curve]

Q: Which Potency does the source give for `O=C(NCc1cccnc1)/C(=C\c1ccc(-c2ccc(Br)cc2)o1)S(=O)(=O)c1ccccc1` here?
A: inconclusive: 39.8 µM [inhibitor, single point]

Q: For `O=C(NCc1ccc(F)cc1)c1cnn2ccccc12`, which Potency is on record?
A: inconclusive: 31.6 µM [inhibitor, partial curve]

Q: How did the “activity change, negative = inhibition” value turn out when `CCN(c1ccccc1)S(=O)(=O)c1cc(C(=O)O)ccc1C` was run?
A: inactive: 0.0254%

Q: How did the “activity change, negative = inhibition” value turn out when `c1csc(-c2nnc(Cc3cccc4ccccc34)o2)c1` was run?
A: inactive: 1.7%

Q: Which Potency does the source give for `COc1cc(C2C(C#N)=C(N)Oc3c2oc(CO)cc3=O)cc(OC)c1OC` (stereo not given) here?
A: inconclusive: 28.2 µM [inhibitor, single point]

Q: With `Cc1cc2cc(C)c(NCCNC(=O)c3ccccc3F)nc2cc1C` as the molecule, how does the Potency read?
A: inconclusive: 14.1 µM [inhibitor, partial curve]

Q: `CC(C)(C)C1CCc2onc(C(=O)N3CCOCC3)c2C1` (stereo not given) was tested. Which “activity change, negative = inhibition” value did it give?
A: inactive: 0.197%

Q: With `CCCCC1=CC2=CC(=O)C(C)(OC(=O)CC)C(=O)C2=CN1CCOC` (stereo not given) as the molecule, how does the Potency read?
A: inconclusive: 17.8 µM [inhibitor, partial curve]

Q: For `CC(C)Cc1nc2sc3c(NCc4ccco4)ncnc3c2c2c1COC(C)(C)C2`, which Potency is on record?
A: inconclusive: 25.1 µM [inhibitor, partial curve]

Q: How did the Potency turn out when `COc1ccccc1CNCC(=O)Nc1ccccc1-n1cccc1` was run?
A: inconclusive: 35.5 µM [inhibitor, single point]

Q: For `O=C(Nc1cccc(-c2cn3c(n2)SCC3)c1)c1ccc(Br)o1`, which Potency is on record?
A: inconclusive: 31.6 µM [inhibitor, single point]

Q: `CCOc1cc(CNCCO)cc(Br)c1OCc1ccc(Cl)cc1Cl` was tested. Which Potency did it give?
A: inconclusive: 20 µM [inhibitor, single point]

Q: `COc1ccccc1-n1c(CNC(=O)COc2ccccc2)n[nH]c1=S` was tested. Which “activity change, negative = inhibition” value did it give?
A: inactive: -8.16%

Q: With `CCc1cc2c(SCC(=O)N(C)C3CCS(=O)(=O)C3)ncnc2s1` (stereo not given) as the molecule, how does the “activity change, negative = inhibition” value read?
A: inactive: -4.34%

Q: `CC(C)CCSc1nnc(N)s1` was tested. Which “activity change, negative = inhibition” value did it give?
A: inactive: -5.75%

Q: With `Cc1nn(-c2ccccc2)c2nc(N)c(C#N)c(-c3ccc(F)cc3)c12` as the molecule, how does the Potency read?
A: inconclusive: 0.794 µM [inhibitor, full curve]
